Reference: the supplement of paper PMC4967469
IC50 is the fitted dose that halves viability relative to control wells, and lower means more sensitive; a limit (>, <) means that the fit lies beyond the doses tested. AUC sums up the same curve from the lowest dose to the 256-fold higher top dose; values near 1 show little effect. An inferred top dose is not printed in the source and was worked back from the curve model.

Compound: O=C1NC(=O)/C(=C\c2ccc3nccnc3c2)S1 [AS605240]
Assay: Viability of human cancer cell lines after 72 h of drug (GDSC screen)
Details: top dose inferred
Experimental: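 Human cancer cell lines in 384-well plates, medium with 10% serum, drug for 72 h over a 256-fold dose range (nine 2-fold or five 4-fold steps up to the top dose). Adherent lines were fixed and stained with the nucleic acid dye Syto60, suspension lines read with resazurin; signal relative to control wells, capped at 0 and 100%. One two-parameter sigmoid per drug and line, fitted in a mixed model over all curves with the slope shared within a line.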

Cell Line | AUC | IC50 [µM]
BICR22 (head and neck, adherent, top dose 20 µM) | 0.461 | 0.961
NCI-H2228 (lung adenocarcinoma, adherent, top dose 20 µM) | 0.896 | > 20
COLO-829 (melanoma, adherent, top dose 20 µM) | 0.826 | > 20
BC-1 (B-cell lymphoma, suspension, top dose 20 µM) | 0.738 | 5.26
KARPAS-422 (B-cell lymphoma, suspension, top dose 20 µM) | 0.861 | 16.5
HCC1143 (breast, adherent, top dose 20 µM) | 0.79 | 13.1
BICR31 (head and neck, adherent, top dose 20 µM) | 0.86 | 17.1
LB373-MEL-D (melanoma, adherent, top dose 20 µM) | 0.873 | 18.6
IM-95 (stomach, adherent, top dose 20 µM) | 0.578 | 2.07
L-1236 (Hodgkin lymphoma, suspension, top dose 20 µM) | 0.926 | > 20
COR-L95 (small cell lung carcinoma, adherent, top dose 20 µM) | 0.977 | > 20
Mo-T (hairy cell leukaemia, suspension, top dose 20 µM) | 0.397 | 0.648
T84 (large intestine, adherent, top dose 20 µM) | 0.869 | 19
RPMI-6666 (Hodgkin lymphoma, suspension, top dose 20 µM) | 0.622 | 2.9
OVTOKO (ovary, adherent, top dose 20 µM) | 0.945 | > 20
TK (B-cell lymphoma, suspension, top dose 20 µM) | 0.881 | 17.7
SK-HEP-1 (liver, adherent, top dose 20 µM) | 0.988 | > 20

Cell Line | AUC | IC50 [µM]
SNG-M (endometrium, adherent, top dose 20 µM) | 0.884 | > 20
G-401 (kidney, adherent, top dose 20 µM) | 0.848 | 17.1
RF-48 (stomach, adherent, top dose 20 µM) | 0.77 | 8.55
HCE-4 (oesophagus, adherent, top dose 20 µM) | 0.97 | > 20
BB30-HNC (head and neck, adherent, top dose 20 µM) | 0.607 | 2.45
QGP-1 (pancreas, adherent, top dose 20 µM) | 0.716 | 7.58
NB69 (neuroblastoma, adherent, top dose 20 µM) | 0.274 | 0.312
ES3 (Ewing sarcoma, adherent, top dose 20 µM) | 0.93 | > 20
769-P (kidney, adherent, top dose 20 µM) | 0.581 | 2.12
PL4 (pancreas, adherent, top dose 20 µM) | 0.905 | > 20
C32 (melanoma, adherent, top dose 20 µM) | 0.457 | 0.946
LOU-NH91 (lung squamous cell carcinoma, adherent, top dose 20 µM) | 0.938 | > 20
Farage (B-cell lymphoma, suspension, top dose 20 µM) | 0.81 | 8.27
HPAF-II (pancreas, adherent, top dose 20 µM) | 0.601 | 2.57
ML-2 (acute myeloid leukaemia, suspension, top dose 20 µM) | 0.237 | 0.241
NCI-H2342 (lung adenocarcinoma, adherent, top dose 20 µM) | 0.902 | > 20
